Measured values: PubChem BioAssay AID488969 (Vanderbilt High Throughput Screening Facility, 2010)
Over roughly 110,000 compounds, “z-score” has its median near -0.1; the highest 2% begin near 2. This is one part of the list.

Each compound was assayed against Metabotropic glutamate receptor 8 (Rattus norvegicus) (UniProt P70579) (assay: mGluR8 Gi/Go-coupled signaling modulation – cell-based, rat, thallium flux, HTS, primary screen (AID 488969)). Conditions: HEK293 rat mGluR8, GIRK (G protein-gated inwardly rectifying potassium channel) thallium flux, FluoZin2; at 10 µM; stronger effect = higher value; submaximal glutamate (EC20) added with thallium.
Chain of UniProt P70579 (P70579 whole entry, looked up): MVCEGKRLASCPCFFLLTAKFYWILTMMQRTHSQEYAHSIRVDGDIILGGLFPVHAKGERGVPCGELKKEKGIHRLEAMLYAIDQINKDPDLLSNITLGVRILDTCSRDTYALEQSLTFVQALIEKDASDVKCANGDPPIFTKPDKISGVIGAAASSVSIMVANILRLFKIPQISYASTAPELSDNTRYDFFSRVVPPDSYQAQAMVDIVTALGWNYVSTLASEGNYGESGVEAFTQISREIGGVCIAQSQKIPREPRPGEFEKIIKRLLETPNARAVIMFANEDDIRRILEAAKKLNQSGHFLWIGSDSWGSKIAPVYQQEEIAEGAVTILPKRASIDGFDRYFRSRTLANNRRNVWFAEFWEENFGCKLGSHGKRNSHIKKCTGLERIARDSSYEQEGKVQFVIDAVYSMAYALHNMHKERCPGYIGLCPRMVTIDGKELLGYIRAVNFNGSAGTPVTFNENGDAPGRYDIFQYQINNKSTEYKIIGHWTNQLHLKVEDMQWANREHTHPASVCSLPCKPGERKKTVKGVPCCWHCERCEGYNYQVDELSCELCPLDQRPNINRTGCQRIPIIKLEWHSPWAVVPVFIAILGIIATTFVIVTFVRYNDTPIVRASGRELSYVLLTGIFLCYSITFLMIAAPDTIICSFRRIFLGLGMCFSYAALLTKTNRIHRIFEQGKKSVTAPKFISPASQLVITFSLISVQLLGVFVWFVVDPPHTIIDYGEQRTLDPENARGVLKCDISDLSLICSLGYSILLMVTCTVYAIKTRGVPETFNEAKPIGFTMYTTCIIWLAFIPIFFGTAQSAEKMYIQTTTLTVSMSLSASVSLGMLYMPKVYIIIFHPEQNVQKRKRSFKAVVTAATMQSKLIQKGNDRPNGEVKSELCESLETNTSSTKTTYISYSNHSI
`CCOc1ccc(N(CC(=O)NC2CCCCC2)C(=O)CSc2nnc(COc3ccccc3)o2)cc1` was tested, and the z-score was 0.00541.
Compound `CCOC(=O)CN1C(=O)C(Sc2n[nH]c(-c3ccc(C)cc3)n2)CCc2ccccc21` (stereo unspecified) has a z-score of -0.743.
`COc1ccc(OC)c(NC(=O)COC(=O)/C=C/c2ccccc2Cl)c1` was tested, and the z-score was -0.188.
With `N#C/C(=C\c1ccc(N2CCOCC2)o1)c1ccccc1` the z-score was 0.0284.
With `CCNc1nc2c(c(=O)[nH]c(=O)n2C)n1Cc1ccc(F)cc1` the z-score was 0.101.
`O=C(c1ccc(NC(=S)Nc2ccc(Cl)c(Cl)c2)cc1)N1CCCC1` was tested, and the z-score was -0.457.
`Cc1ccc2ccc(C(Nc3ccccn3)c3ccccc3)c(O)c2n1` (stereo unspecified) gave a z-score of 0.351.
Work on `COc1ccc(/C=C/C(=O)C2C(=O)C=C(C)OC2=O)cc1O` (stereo unspecified) yielded a z-score of -0.279.
`CC(=O)c1c(C)[nH]c(C(=O)Nc2nc(-c3ccc(Cl)cc3)cs2)c1C` showed a z-score of -0.551.
`COc1ccc(Nc2nnc(SC(C(=O)Nc3ccc(OC)c(Cl)c3)c3ccccc3)s2)cc1` (stereo unspecified) was tested, and the z-score was -0.22.
In the case of `Cc1nn(C)c(C)c1NC(=O)CCCSc1nc(-c2ccco2)cc(C(F)(F)F)n1`, the z-score is reported as -0.502.
For `CCN(CC)CCN1C(=O)C(=O)/C(=C(/O)c2ccncc2)C1c1ccccc1` (stereo unspecified), the z-score was 0.426.
`CCOc1ccc(S(=O)(=O)Nc2cc(OC)c(OC)cc2C(=O)O)cc1` was tested, and the z-score was 0.212.
`O=C(CCOc1ccccc1)N1CCN(S(=O)(=O)c2cccs2)CC1` showed a z-score of -0.205.
`CCC(=O)c1ccc(OC(=O)c2ccc(Br)o2)cc1` was tested, and the z-score was -0.00202.
Work on `CC(NC(=O)c1ccc(S(=O)(=O)N(C)C)cc1)c1ccccc1` (stereo unspecified) yielded a z-score of 0.967.
`Cc1ccc(N2CC(C(=O)N3CCc4ccccc43)CC2=O)cc1` (stereo unspecified) gave a z-score of -0.0766.
`COc1ccccc1S(=O)(=O)Cc1ccc(C(=O)NCc2ccc3c(c2)OCO3)o1` was tested, and the z-score was -0.0657.
`CC1CCN(S(=O)(=O)c2ccc(NC(=S)NC(=O)c3ccc(Cl)cc3)cc2)CC1` was tested, and the z-score was -0.142.
For `COc1ccc(N2CCN(C(c3cc4cc(C)ccc4[nH]c3=O)c3nnnn3Cc3ccccc3)CC2)cc1` (stereo unspecified), the z-score was 0.064.
In the case of `COc1ccccc1N1CCN(CC(=O)Nc2c(C)n[nH]c2C)CC1`, the z-score is reported as -0.64.
For `Cc1noc(C)c1CSc1nnc2ccccn12`, the z-score was -0.139.
Work on `CCOC(=O)Nc1oc2ccccc2c(=O)c1C` yielded a z-score of -0.0729.
`CC(C)Oc1ccc(C(CC(=O)NCCCN(C)C)c2ccc(F)cc2)cc1` (stereo unspecified) gave a z-score of -1.46.
`COc1ccccc1NS(=O)(=O)c1ccc(NC(=O)c2nc3ncccn3n2)cc1` gave a z-score of -0.0329.
`COc1cc(/C=N/Nc2ccc(Cl)cc2)ccc1OC(=O)c1cccs1` showed a z-score of 0.925.
Work on `COc1ccc(N2CCN(C(=O)CCc3ccc(S(=O)(=O)NC(C)C)cc3)CC2)cc1` yielded a z-score of 0.0553.
Compound `Cc1cc(C)c(NC(=O)CO/N=C2\CCCc3nonc32)c(C)c1` has a z-score of 0.408.
Compound `O=C(/C=C/c1ccco1)Nc1ccc2nn(-c3ccccc3)nc2c1` has a z-score of -0.116.
With `CO/N=C/NC(=O)NOCc1ncc(C(F)(F)F)cc1Cl` the z-score was -0.706.
`CN1CCN(C(=O)c2cc3nc(-c4ccccc4)cc(-c4ccccc4)n3n2)CC1` showed a z-score of -0.147.
`O=C(CCSc1ccccc1)NC(=O)COC(=O)c1ccc(OC(F)F)cc1` gave a z-score of -0.114.
Compound `CCOC(=O)c1ccccc1Nc1cn(C(C)=O)c2ccccc12` has a z-score of 2.73.
In the case of `O=C(NC(O)C(=O)c1ccccc1)c1cccs1` (stereo unspecified), the z-score is reported as -0.437.
For `Cc1cccc(CC2CC(=O)N(c3ccccc3)C2=O)c1` (stereo unspecified), the z-score was -0.0577.
`COC(=O)c1cccc(NC(=O)Cc2coc3cc(OC)ccc23)c1` was tested, and the z-score was -0.827.
`Cc1ccc(NC(=S)N(CCCN2CCOCC2)Cc2cccs2)c(C)c1` showed a z-score of -0.169.
For `O=C(CCCCCn1c(SCC(=O)c2ccccc2)nc2ccccc2c1=O)NCc1ccco1`, the z-score was -0.107.
`CCn1c(CCNC(=O)c2ccc(Cl)cc2)n[nH]c1=S` gave a z-score of -0.774.
Compound `O=C(N/N=C/c1ccco1)c1ccc(Br)o1` has a z-score of 0.452.
`CCOC(=O)c1ccc2c(c1)nc(SCC(=O)NC(C)C)n2CC` gave a z-score of -0.178.
`CCNC(=S)NNC(=O)Cc1ccccc1` was tested, and the z-score was -0.171.
With `c1ccc(CNn2c(N3CCOCC3)nc3ccccc32)cc1` the z-score was 0.241.
Work on `COc1ccc(/C=C2\NC(=S)N(CC3CCCO3)C2=O)c(OC)c1C` (stereo unspecified) yielded a z-score of 2.32.
Compound `Cc1coc(C)c1C(=O)CC1(O)C(=O)N(CCc2ccccc2)c2ccccc21` (stereo unspecified) has a z-score of -0.544.
In the case of `COCC(=O)NC(c1ccccc1)c1ccccc1`, the z-score is reported as 0.129.
With `CN(Cc1ccccc1)C(=O)Cn1nc(C(F)(F)F)c2c1CCC2` the z-score was 1.1.
For `O=C(NCCc1ccccc1)C(=O)NN=C1CCCC1`, the z-score was -0.407.
Work on `COc1nc(-c2cccs2)cc(-c2ccc(C)cc2)c1C#N` yielded a z-score of 0.115.
`N#Cc1c(N)nc2c3c(sc(=N)c2c1N)NC(=O)CC3c1ccccc1` (stereo unspecified) showed a z-score of -0.0395.
With `CC1=CC(C)(C)n2c(O)c(N=N)c3cc(C)cc1c32` the z-score was -0.683.
With `Cc1cccc(OCCNC(=O)c2ccc(Oc3ccc(C(F)(F)F)cc3[N+](=O)[O-])cc2)c1` the z-score was -0.195.
With `O=C(N1CCOCC1)N1CCN(c2ccc(F)cc2)CC1` the z-score was -0.0472.
`O=C(NCc1ccccc1)c1cc(=O)[nH]c2ccccc12` gave a z-score of 0.356.
Compound `COc1cccc(-c2nn(C)c3sc(C(=O)NCc4ccc5c(c4)OCO5)cc23)c1` has a z-score of -0.269.
Compound `CCCC(=O)c1c(C)c2ccccc2n1C` has a z-score of -0.809.
